Certain results were filed several times, with different values. Only these are listed. The source may hold further records. The records of an entry repeat one measurement across runs, samples, wells, individuals or studies. Counts like (3×) give the number of equal values in this list. Marks such as [2022-09] give the month of the run.
System: 883617-216-R-J1-PDC complex spheroid viability
Assay: Anticancer human tumor 883617-216-R-J1-PDC patient-derived bladder carcinoma cell line growth inhibition
Details: for IC50: compound alone; for viability, T/C: stronger effect = lower value
Text: Multicellular complex tumor spheroid response to LSD1 Inhibitor Iadademstat in combination with a variety of drugs and investigational agents in selected tumor cell lines
The current study was undertaken to assess response to LSD1 inhibitors in combination with standard-of-care drugs and investigational agents in solid tumor complex spheroid models as well as in the K-562 leukemia. Complex spheroids include a stromal component modeled by human endothelial cells (HUVEC) and fibroblasts modeled by human mesenchymal stem cells (MSCs). The concentration ranges selected for each drug and investigational agent were based upon clinically achievable concentrations if the clinical Cmax of the agent was known.
Compounds. The drugs and investigational agents used in this study are listed on Table 1. All of the agents used, including staurosporine (NSC755774) and gemcitabine (NSC613327), were obtained from the Developmental Therapeutics Program, NCI. FDA-approved anticancer drugs are available from the NCI at http://dtp.nci.nih.gov/branches/dscb/oncology_drugset_explanation.html. Drugs and investigational agents were >95% pure by proton nuclear magnetic resonance (NMR) and liquid chromatography/mass spectrometry (LC/MS). Stock solutions were prepared at 400x in DMSO, stored at -70 degrees C, and diluted in fresh medium prior to their use. The final concentration of DMSO in cell culture wells never exceeded 0.25% (v/v). The FDA-approved anticancer drug set is available from the Developmental Therapeutics Program at https://dtp.cancer.gov/organization/dscb/obtaining/available_plates.htm. All drugs and investigational agents were tested over a range starting from a high concentration at or near the clinical Cmax and decreasing in half-log increments. If the clinical Cmax for an agent had not been determined, the highest concentration tested was 10 microM.
Cell Lines. The patient-derived cancer cell (PDC) lines: 292921-168-R-J2-PDC, K24384-001-R-PDC, and 521955-158-R2-J5-PDC pancreatic carcinomas, 556581-035-R-J1 ovarian carcinoma, 324938-238-R-J1-PDC, 855422-203-R-J1-PDC and 883617-216-R-J1-PDC urothelial bladder carcinomas, 743489-274-T-PDC renal cell carcinoma, 138582-R-J1 Merkel cell tumor, K60290-347-R-J1 and K57222-313-R-J1-PDC glioblastomas, 653999-131-R-J2-PDC, LG0703-F948-PDC, and 349418-098-R-PDC non-small cell lung carcinomas, 885512-296-R-J2-PDC, 171881-019-R-J1-PDC breast carcinomas and 186277-243-T-J2-PDC and 233499-124-R-J2-PDC colon carcinomas were obtained from the NCI Patient-Derived Models Repository (PDMR, https://pdmr.cancer.gov). The established cell lines NCI/ADR-RES (RRID:CVCL_14520 and OVCAR-5 (RRID:CVCL_1628) ovarian carcinomas, 786-O (RRID:CVCL_1051) and A498 (RRID:CVCL_A498) renal cell carcinoma, NCI-H211 (ATCC, cat. CRL-5824; RRID:CVCL_1529), NCI-H196 (ATCC, cat. CRL-5823, RRID:CVCL_1509), SW 1271 (ATCC, cat. CRL-2177, RRID:CVCL_1716) and NCI-H1876 (ATCC, cat. CRL-5902, RRID:CVCL_1503) small cell lung carcinomas, MDA-MB-231 (RRID:CVCL_0062) and MDA-MB-468 (RRID:CVCL_0419)breast carcinomas (10-12). Pooled donor human umbilical vein endothelial cells (HUVEC, Lonza, cat. CC-2519) and human mesenchymal stem cells (hMSC, Lonza, cat. PT-2501) were purchased from Lonza (Walkersville, MD).
Cell Culture. All cells were maintained in an incubator at 37 degrees C and 5% CO2 with 95% humidity. The PDC lines were cultured according to standard operating procedures established by the NCI PDMR (https://pdmr.cancer.gov). Briefly all PDCs were thawed and cultured in Matrigel-coated flasks prepared with a working solution of 1X Ham's F-12 nutrient mix, without supplementation (Invitrogen, Waltham, MA, cat. 11765054), 100 U/mL penicillin-streptomycin (Invitrogen, cat. 15140122), and 2.5% Matrigel (Corning Inc., Corning, NY, cat. 354248) for the first three passages. […]
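Also: exposure lasted seven days after three days of spheroid growth.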
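For viability, T/C in this document: 100% = DMSO vehicle control luminescence.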

| SMILES | IC50 | viability, T/C (compound alone 0.316 µM) | viability, T/C (compound alone 1 µM) | viability, T/C (compound alone 3.16 µM) | viability, T/C (compound alone 10 µM) |
| --- | --- | --- | --- | --- | --- |
| Nc1ncn(C2CC(O)C(CO)S2)c(=O)n1 (stereo unspecified) | 173 nM [2021-11] and 14.9 nM [2021-12] |  |  |  |  |
| NC1CC1c1ccc(-c2cccc(O)c2)cc1 (stereo unspecified) |  | 106, 116 (3×), 117 (2×), 113 (2×), 121 (2×), 102, 128, 131, 109, 118 (2×), 107, 112, 135, 122, 114, 110, 124, 115% (2×) | 112 (2×), 116 (3×), 108, 122 (4×), 120 (2×), 138, 110 (2×), 102, 99, 113, 117, 109, 106, 115, 118, 135% | 93.6, 129, 105 (2×), 113 (3×), 97.5, 115, 103, 107 (2×), 112, 93.9, 89.9, 104, 130, 96.3, 110, 111 (2×), 92.7, 114, 136, 123% | 87.4, 97, 88.7, 81.8, 88.9, 93.4, 117, 93.1, 84, 89.2, 87.2, 84.2, 102, 89.3, 104, 80.6, 91.4, 99.3, 90.7, 78.8, 86.3, 105, 101, 109, 77.1% |
| Cn1ncnc1C1c2n[nH]c(=O)c3cc(F)cc(c23)NC1c1ccc(F)cc1 (stereo unspecified) | > 100 nM [2021-11] and 9.07 nM [2021-12] |  |  |  |  |

Reference: PubChem BioAssay AID1918945 (Molecular Pharmacology Branch, DTP, NCI, 2023)
